± gives the standard deviation of the averaged measurements. Some of the results follow.

The assay deals with PfAP2-I AP2 domain 3 (GST-tagged). Put plainly: gcPBM binding intensity (ln(normalized median fluorescence intensity)); higher = stronger DNA binding. Summed up: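 In this array assay, P. falciparum DNA-binding domains with a GST tag, expressed in E. coli, were applied for 1 h to primer-extended double-stranded 36-bp intergenic genomic probes and negative controls on an Agilent 4 × 180k array. Bound protein was visualised with Alexa488 anti-GST antibody at 488 nm. Binding intensity is the highest Masliner-normalised natural-log median intensity across replicate spots of either probe orientation.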
Turning to “TGGATGTTAATATAGTGTACATTTATAAGTCAGTAT [XGTACX_site2949]”, the “gcPBM binding intensity (ln)” value turned out to be 8.07 ± 0.54.
Then “GTGGAAAAAAATAATTGTACACAATAATAAATATAT [XGTACX_site2414]”, with 8 ± 0.46; and “GTCAAAAGTTTTTAAGGTACACTTATTTTATTATAA [XGTACX_site7004]”, with 7.97 ± 0.33.
As for “ATGTAATATATGCGGAAATATATTCACAAGACGTCA [CACACA_negctrl_site373]”, the “gcPBM binding intensity (ln)” value came to 7.67 ± 0.66.
Take “GAAAAAAAATCCAAGATGCACTATTATTACAAAAAT [GTGCAC_site9516]”: the “gcPBM binding intensity (ln)” value came to 9.45 ± 0.3.
On to “ACCTTTATTGTATGAACACACATAAGCTGATACATC [CACACA_site4028]”, for which the “gcPBM binding intensity (ln)” value came out at 8.14 ± 0.55.
As to “CACTAAACATATACACGTACATGCAACGGATTTTTT [XGTACX_site461]”, the “gcPBM binding intensity (ln)” value was 8.06 ± 0.52.
As for “AATATATGGTTCCTTGATATTAAATTCAATTTAATG [CACACA_negctrl_site71]”, the “gcPBM binding intensity (ln)” value turned out to be 7.67 ± 0.47.
With “TGTGTATATGTGCAAAGTACAAAAAAGAAATTATTT [XGTACX_site7569]”, the “gcPBM binding intensity (ln)” value is 8.55 ± 0.42.
As to “TAGTATTGTAAAAAAAAAAAAGAAAAAAAAAAAAAA [CACACA_negctrl_site977]”, the “gcPBM binding intensity (ln)” value is 8.04 ± 0.73.
On to “TAAATCTATATCATCACACACACATACATAAATATA [CACACA_site6228]”, for which the “gcPBM binding intensity (ln)” value was 7.83 ± 0.54.
As for “AAAATATATATAACTTGTACATATACATACGTATAT [XGTACX_site4570]”, the “gcPBM binding intensity (ln)” value was found to be 7.53 ± 0.45.
With “TGTATATATCAATGTACACACATGCGTATGTTCGTT [CACACA_site7654]”, the “gcPBM binding intensity (ln)” value is 7.63 ± 0.5.
The result for “TATAAAAAAAATTGCACACATATTATACAGGACGAC [CACACA_site701]” reads 8.71 ± 0.81.
Then “ATCATATGTATGCATACACACAAAAAATTATATATA [CACACA_site398]”, with 7.92 ± 0.45; and “TATAATGATATAACAACACACATGTATGTATTATTA [CACACA_site230]”, with 7.33 ± 0.4; and “TCTTATATATGCTTAAATATATTATATTTATTTGAA [CACACA_negctrl_site1757]”, with 7.54 ± 0.51.
Then “TTATTTATGATATATACACACTAACATTATTTATCC [CACACA_site6720]”, with 7.75 ± 0.69.
Take “TTTTTGATGAAATATTATTTTCCTGACTTGGATTAA [CACACA_negctrl_site148]”: the “gcPBM binding intensity (ln)” value stood at 7.44 ± 0.61.
With “TGGAGGATAGTTCACAGTACCCAGAAACTCTACGGA [XGTACX_site2560]”, the “gcPBM binding intensity (ln)” value was determined as 7.56 ± 0.64.
Consider “AACCATAAATAATTATGTACTAAAAAAAATATATAT [XGTACX_site3415]”, for which the “gcPBM binding intensity (ln)” value is 7.91 ± 0.52.
In the case of “ATAATATATTTATGTTGTACAAGGAAAATTTTGAAA [XGTACX_site3472]”, the “gcPBM binding intensity (ln)” value was 8.38 ± 0.28.
Consider “GAAATGGAAAAATATACATGCGCATATAAATTAATA [TGCATGCA_site834]”, for which the “gcPBM binding intensity (ln)” value turned out to be 7.54 ± 0.59.
Take “TTAAAATCTTGAAAAGTGCATTATCATTTTGTAACG [GTGCAC_site9447]”: the “gcPBM binding intensity (ln)” value amounted to 11.4 ± 0.73.
For “TATAATGATGATGATAGTACGTATGAGTTCAAAAAA [XGTACX_site3656]”, the “gcPBM binding intensity (ln)” value stood at 7.99 ± 0.52.
Then “TATATATTTATATATGCATGTACATTTTTATTTATT [TGCATGCA_site1048]”, with 7.92 ± 0.21.
As to “CTGAATGTATATATTTGTACATATATATATATATAT [XGTACX_site5557]”, the “gcPBM binding intensity (ln)” value was determined as 9.55 ± 0.6.
With “TTTTTTTTTTTTAATTAACACACATAAATATATATA [CACACA_site9077]”, the “gcPBM binding intensity (ln)” value stood at 8.09 ± 0.79.
Take “GGGTATAATAAAAGCACACACAAAGATATAAATATA [CACACA_site3308]”: the “gcPBM binding intensity (ln)” value was 8.58 ± 0.057.
As for “AAAAAAAAAAAACACGCATGTACATAAAAATAATCA [TGCATGCA_site142]”, the “gcPBM binding intensity (ln)” value came to 7.79 ± 0.52.
Then “ATATAAAACAACGGGTGTACAAAAAAATAAATAATA [XGTACX_site4094]”, with 8.22 ± 0.61.
The result for “AAAGAAATGAAATATACACACATACCTATATACATA [CACACA_site7817]” reads 7.61 ± 0.5.
Take “TATAGATACCTATACACACACACACGGACATATATA [CACACA_site7585]”: the “gcPBM binding intensity (ln)” value was 7.87 ± 0.44.
On to “TTTTTCTTCTGCATTATGCACACTATAATTCGTTAA [CACACA_site2837]”, for which the “gcPBM binding intensity (ln)” value worked out at 10.565 ± 0.007.
As for “TTTTTAATATATAAAGATAATAATAAATAAAATTCA [CACACA_negctrl_site657]”, the “gcPBM binding intensity (ln)” value stood at 7.32 ± 0.45.
For “GTAAACAATTATGAACGTACATAAAATAAATGAACA [XGTACX_site7159]”, the “gcPBM binding intensity (ln)” value worked out at 7.92 ± 0.59.
Take “TGTCTTTTTAAGTTTTGTACATAAATATATTTCAAA [XGTACX_site427]”: the “gcPBM binding intensity (ln)” value was found to be 7.86 ± 0.52.
Take “AGTATACACAGACACACACACACATATATATATATA [CACACA_site8510]”: the “gcPBM binding intensity (ln)” value was 9.54 ± 0.52.
With “TAATATTATATAAATTGTACTATTTTTTCCTTATTC [XGTACX_site5314]”, the “gcPBM binding intensity (ln)” value came out at 7.62 ± 0.51.
The result for “TATTTATGCACGCGTGCACACACATATGAAAAAAGG [CACACA_site9090]” reads 11.1 ± 0.59; that for “AATTGCTAATGGTACGAACACACATATAAAGATGCA [CACACA_site8634]”, 7.74 ± 0.66; that for “AAGAATGTTAACGTTGCACACAAAAAAAAAGTATAC [CACACA_site8763]”, 8.22 ± 0.73.
For the sequence “ATATAAGTTATTTTATACAAAAAAAAAAAAAAAAAT [CACACA_negctrl_site1190]”, the “gcPBM binding intensity (ln)” value was determined as 7.62 ± 0.44.
In the case of “AAAAAAAAAAAAAATACACACACATATATATATATA [CACACA_site8698]”, the “gcPBM binding intensity (ln)” value amounted to 9.4 ± 0.23.
With “CTTTCATATGTTTTAACACACACGCATATATTATAG [CACACA_site7033]”, the “gcPBM binding intensity (ln)” value turned out to be 8.28 ± 0.43.

The values above are taken from the supplement of paper PMC11417369.
